Measured values taken from the supplement of paper PMC10441789.
This is one part of the list. Antibody binding of pooled human sera (four to six donors per pool; dilution not stated) to peptides of the Trypanosoma cruzi antigen TSSA on microarrays. Quantile-normalised fluorescence in arbitrary units, mean of duplicate arrays; higher = more binding. No active / inactive call. The uninfected pools are read here as the healthy donors of the same country. The strongest signals lie near the top of the scale (about 60,000).

These sequences were tested on pooled sera of uninfected people, Colombia (assay: antibody binding signal (normalised fluorescence) (arbitrary fluorescence units); higher = stronger serum antibody binding to peptide).
Method: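 Microarray of 15-residue peptides over residues 30-55 of Trypanosoma cruzi TSSAII, each with 1 to 10 substitutions at naturally variable positions, probed with one serum pool per country.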

| Sequence | antibody binding signal |
| --- | --- |
| TPPSGTEKKAATGGA | 652 |
| PSGTEKKTATGGTPS | 692 |
| SGKENKTAAGGTPSQ | 279 |
| KEKKAAAGGAPSPSG | 106 |
| GTEKKPATGEAPSPS | 244 |
| TPPSGKENKPATGGA | 559 |
| TENKPAAGETPSPPG | 162 |
| KDNKPATGETPSQSG | 327 |
| SGTENKAAAGGTPSP | 538 |
| SGTDNKPATGGTPSP | 778 |
| KKAATGGAPSPSGAS | 248 |
| KTAAGGTPSQPGASS | 135 |
| TDKKTAAGGTPSQSG | 173 |
| KDKKPATGETPSQPG | 168 |
| PPSGKDKKAATGEAP | 349 |
| GKENKPAAGEAPSQS | 128 |
| DNKTAAGETPSQSGA | 154 |
| GKDNKPAAGEAPSQS | 187 |
| SSTPPSGKEKKTAAG | 188 |
| DNKAATGGAPSQSGA | 215 |

| Sequence | antibody binding signal |
| --- | --- |
| TDKKAAAGETPSPSG | 182 |
| DNKAATGEAPSQSGA | 151 |
| PPSGTENKPAAGEAP | 570 |
| STPPSGKENKAATGG | 672 |
| NKPATGEAPSPSGAS | 304 |
| DKKTATGEAPSPPGA | 87.8 |
| GTDNKTAAGGTPSQP | 192 |
| TEKKPAAGETPSQPG | 571 |
| STPPSGKENKPATGE | 780 |
| TDKKAAAGETPSQSG | 658 |
| STPPSGKDKKTAAGE | 231 |
| PPSGTDKKAATGGAP | 877 |
| GTDKKPAAGGTPSPS | 255 |
| GTDKKTAAGGAPSQS | 153 |
| SSTPPSGTEKKTATG | 120 |
| KAATGEAPSPSGASS | 114 |
| TISTPPSGKENKAAA | 814 |
| PPSGTDNKPAAGGTP | 1030 |
| SGKDNKPATGEAPSQ | 314 |
| PPSGKDNKAAAGEAP | 320 |
